Read counts are not given, so values of variants with three or more changes are uncertain.
B1: OR4K15 (parent)
chain: GUUAACGGUCAUAGGCCAUGGAAACUAGGAGCACCAUUUCGCUGCCAGUGAAGAAAUGAACAAAGAAAAUCUGGGCCAGGCAGGCAUCAAAAGAAAUAGUCUUGCGCUCAACCAGAAAGUCUGUAAUCAUUUUAAGGGUA

Variants of: B1
Test: self-cleavage, relative activity (ratio to wild type); higher = more cleavage; in vitro, sequencing; the parent is a self-cleaving ribozyme

Variant	self-cleavage
GUUAACGGUCAUAGGCCAUGGAAGCUAGGAGCACCAUUUCGCUGCCAGUGAAGAAAUGAACAAAGGAAAUCUGGGCCAGGCAGGCAUCAAAAGAAAUAGUCAUGCGCUCAACCAGAAAGUCUGUAAUCAUUUUAAGGGUA [A24G A66G U102A]	0.27
GUUAACGGUCAUAGGCCAUGGAAGCUAGGAGCACCAUUUCGCUGCCAGUGAAGAAAUGAACGAAGAAAAUCUGGGCCAGGCGGGCAUCAAAAGAAAUAGUCUUGCGCUCAACCAGCAAGUCUGUGAUCAUUUUAAGGGUA [A24G A62G A82G A116C A125G]	0.01
GUUAACGGUCAUAGGCCAUGGAAGCUAGGAGCACCAUUUCGCUGCCAGUGAAGAAAUGAACAGAGAAAAUCUGGGCCAGGCAGGCAUCAAAAGAAAUAGUCUUGCGCUCAGCCAGAAAGUCUGUAAUCAUUUUAAGGGUA [A24G A63G A111G]	0.05
GUUAACGGUCAUAGGCCAUGGAAGCUAGGAGCACCAUUUCGCUGCCAGUGAAGAAAUGAGCAAAGAAAAUCUGGGCCAGGCAGGCAUCAAAAGAGAUAGUCUUGCGCUCAACCAGAAAGUCUGUAAUCAUUUUAAGGGUA [A24G A60G A95G]	1.5
GUUAACGGUCAUAGGCCAUGGAAGCUAGGAGCACCAUUUCGCUGCCAGUGAAGAAGUUAACAAAGAAAAUCUGGGCCAGGCAGGCAUCAAAAGAAAUAGUCUUGCGCUCAACCAGAAAGUCUGUAAUCAUUUUAAGGGUA [A24G A56G G58U]	1.28
GUUAACGGUCAUAGGCCAUGGAAGCUAGGAGCACCAUUUCGCUGCCAGUGAAGAAAUGCACAAAGAAAAUCUGGGCCGGGCAGGCAUCAAAAGAAAUAGUCUUGCGCUCACCCAGAAAGUCUGUAAUCAAUUUAAGGGUA [A24G A59C A78G A111C U130A]	0.01
GUUAACGGUCAUAGGCCAUGGAAGCUAGGAGCACCAUUUCGCUGCCAGUGAAGAAAUGAGCAAAGAAAAUCUGGGCCAGGCAGGCAUCGAAAGAAAUAGUCUUGUGCUCAACCAGAAAGUCUGUAAUCAUCUUAAGGGUA [A24G A60G A89G C105U U131C]	0.14
GUUAACGGUCAUAGGCCAUGGAAGCUAGGAGCACCAUUUCGCUGCCAGUGAAGAAGUGAACAAAGAAAAUCUGGGCCAGGCAGGCAUCAAAAGAAAUAGUCUUGCGCUCAACCAGAAAGUCCGUAAUCAUCUUAAGGGUA [A24G A56G U122C U131C]	0.17
GUUAACGGUCAUAGGCCAUGGAAGCUAGGAGCACCAUUUCGCUGCCAGUGAAGAAAUGAACAAGGAAAACCUGGGCCAGGCAGGCAUCAAAAGAAAUAGUCUUGCGCUCUACCAGAAAGUCUGUAAUCAUUUUAAGGGUA [A24G A64G U70C A110U]	0.39
GUUAACGGUCAUAGGCCAUGGAAGCUAGGAGCACCAUUUCGCUGCCAGUGAAGAAUAGAACAAAGAAAAUCUGGGCCAGGCAGGCAUCAAAAGAAAUAGUCUUGCGCUCAACCAGAAAGUCUGUAAUCAUUUUAAGGGUA [A24G A56U U57A]	1.2
GUUAACGGUCAUAGGCCAUGGAAGCUAGGAGCACCAUUUCGCUGCCAGUGAAGAAAUGAGCAAAGAAAAUCUGGGCCAGGCAGGCAUCAAAAGAAAUAGUCUUGCGCUCAAGCAGAAAGUCUGUAAUCAUUUUAAGGGUA [A24G A60G C112G]	0.02
GUUAACGGUCAUAGGCCAUGGAAGCUAGGAGCACCAUUUCGCUGCCAGUGAAGUAAUGAACAAAGAAAAUCUGGGCCAGGCAGGCAUCAAAAGAAAUAGUCUUGCGCUCAACCAGAAAGUCUGUAAUCAUCUUAAGGGUA [A24G A54U U131C]	1.72
GUUAACGGUCAUAGGCCAUGGAAGCUAGGAGCACCAUUUCGCUGCCAGUGAAGAAAUGAGCAAAGAAAAUCUGGGCCAGGCAGGCGUCAAAAGAAAUAGUCUUGCGCUCAACCAGAAAGUCUGUAAUCAUUUUAAGGGUA [A24G A60G A86G]	1.56
GUUAACGGUCAUAGGCCAUGGAAGCUAGGAGCACCAUUUCGCUGCCAGUGAAGGAAUGAACUAAGAAAAUCUGGGCCAGGCAGGCAUCAAAAGAAAUAGUCUUGCGCUCAACCAGAAAGUCUGUAAUCGUUUUAAGGGUA [A24G A54G A62U A129G]	0.75
GUUAACGGUCAUAGGCCAUGGAAGCUAGGAGCACCAUUUCGCUGCCAGUGAAGAUAUGAACAAAGAAAAUCUGGGCCAGACAGGCAUCAAAAGAAAUAGUCUUGCGCUCAACCAGAAAGUCUGUAACCAUUUUAAGGGUA [A24G A55U G80A U127C]	0.12
GUUAACGGUCAUAGGCCAUGGAAGCUAGGAGCACCAUUUCGCUGCCAGUGAAGAAGUGGACCAUGAAAAUCUGGGCCUGGCAGGCUUCAAAAGAAAUAGUCUUGCGCUCAACCAGAAAGUCUGUAAUCAUUUUAAGGGUA [A24G A56G A59G A62C A64U A78U A86U]	0.47
GUUAACGGUCAUAGGCCAUGGAAGCUAGGAGCACCAUUUCGCUGCCAGUGAAGUAAUGAACAAAGAAAAUCUGGGCCAGGCAGGCAUCAGAAGAAAUAGUCUUGCGCUCAACCAGAAAGUCUGUAAUCAUUUUAAGGGUA [A24G A54U A90G]	1.27
GUUAACGGUCAUAGGCCAUGGAAGCUAGGAGCACCAUUUCGCUGCCAGUGAAGAAAUGAACGAAGAAAAUCUGGGCCAGGCAGGCAUCAAAAGAAAUAGUCUUGCGCUCAACCAGAAAGUCUGUAAUCAUUUUAAGGGUG [A24G A62G A140G]	1.13
GUUAACGGUCAUAGGCCAUGGAAGCUAGGAGCACCAUUUCGCUGCCAGUGAAGAGAUAAACAAAGAAAAUCUGGGCCAGGCAGGCAUCAAAAGAAAUAGUCUUGCGCUCAACCAGAAGGUCUGUAAUCAUUUUAAGGGUA [A24G A55G G58A A118G]	0.39
GUUAACGGUCAUAGGCCAUGGAAGCUAGGAGCACCAUUUCGCUGCCAGUGAAGUAAUGAACAAAGAAAAUCUGGGCCAGGCAGGCAUCCAAAGAAAUAGUCUUGCGCUCAACCAGAAAGUCUGUAAUCAUUUUAAGGGUA [A24G A54U A89C]	2.26
GUUAACGGUCAUAGGCCAUGGAAGCUAGGAGCACCAUUUCGCUGCCAGUGAAGAAAUGAACUAAGAAAAUCUGGGCCGGGCAGGCAUCAAAAGAAGUAGUCUUGCGCUCAACCAGAAAGUCUGUAAUCAUUUUAAGGGUA [A24G A62U A78G A96G]	0.22

Variant	self-cleavage
GUUAACGGUCAUAGGCCAUGGAAGCUAGGAGCACCAUUUCGCUGCCAGUGAAGAAAUGAACAGAGAAAAUCUGGGCCAGGCAGGCGUCAAAAGAAAUAGUCUUGCGCUCAACCAGAAAGUCUGUAAUCAUUUUAAGGGUA [A24G A63G A86G]	1.63
GUUAACGGUCAUAGGCCAUGGAAGCUAGGAGCACCAUUUCGCUGCCAGUGAAGGAAUGAACAAAGAAAAUCUGGGCCAGGCAGGCAUCAAAAGGAAUAGUCUUGCGCUCAACCAGAAAGUCUGUAAUCAUUUUAAGGGUA [A24G A54G A94G]	2.15
GUUAACGGUCAUAGGCCAUGGAAGCUAGGAGCACCAUUUCGCUGCCAGUGAAGAGGUGAACGAAGAAAAUCUGGGCCAGGCAGGCACCAAAAGAAAUAGUCUUGCGCUCAACCAGAAAGUCUGUAAUCAUUUUAAGGGUA [A24G A55G A56G A62G U87C]	0.61
GUUAACGGUCAUAGGCCAUGGAAGCUAGGAGCACCAUUUCGCUGCCAGUGAAGAAAUGAACAGGGAAAAUCUGGGCCAGGCAGGCAUCAAAAGAAAUAGUCUUGCGCUCAACCAGAAAGUCUGUAAUCAUUUUAAGGGUA [A24G A63G A64G]	1.78
GUUAACGGUCAUAGGCCAUGGAAGCUAGGAGCACCAUUUCGCUGCCAGUGAAGAAAUGUACAAAGGAAAUCUGGGCCAGGCAGGCAUCAAAAGAGAUAGUCUUGCGCUCAACCAGAAAGUCUGUAAUCAUUUUAAGGGUA [A24G A59U A66G A95G]	0.8
GUUAACGGUCAUAGGCCAUGGAAGCUAGGAGCACCAUUUCGCUGCCAGUGAAGAGAUGAGCAAAGAAAAUCUGGGCCAGGCAGGCAUCAAAAGAAAUAGUCUAGCGCUCAACCAGAAAGUCUGUAAUCAUUUUAAGGGUA [A24G A55G A60G U103A]	0.65
GUUAACGGUCAUAGGCCAUGGAAGCUAGGAGCACCAUUUCGCUGCCAGUGAAGAAAUGAACGAAGAAAAUCUGGGCCAGGCAGGCAUCAAAAGAAAUAGUCUUGCGCUCAACCAGAAAGUCUGUAAUCAUAUUAAGGGUA [A24G A62G U131A]	0.97
GUUAACGGUCAUAGGCCAUGGAAGCUAGGAGCACCAUUUCGCUGCCAGUGAAGUAAUGAACAAAGAAAAUCUGGGCCAGGCAGGCAUCAAAAGAAAUAGUCUUGCGCUCAGCCAGAAAGUCUGUAAUCAUUUUAAGGGUA [A24G A54U A111G]	0.05
GUUAACGGUCAUAGGCCAUGGAAGCUAGGAGCACCAUUUCGCUGCCAGUGAUGAAAUGAACAAAGAAAAUCUGGGCCAGGCAGGCAUCAAAAGAAAUAGCCUUGCGCCCAACCAGAAAGUCUGUAAUCAUUUUAAGGGUA [A24G A52U U100C U108C]	0.03
GUUAACGGUCAUAGGCCAUGGAAGCUAGGAGCACCAUUUCGCUGCCAGUGAAGAAAUGAGCAAAGAAAAUCUGGGCCAGGCAGGCAUCAAAAGAAAUAGUAUUGCGCUCAACCAGAAAGUCUGUAAUCAUUUUAAGGGUA [A24G A60G C101A]	0.11
GUUAACGGUCAUAGGCCAUGGAAGCUAGGAGCACCAUUUCGCUGCCAGUGAAGGAAUGAACAAAGAGAAUCUGGGCCAGGCAGGCAUCAAAAGAAAUAGUCUUGCGCUCAACCAGAAAGUCUGUAAUCAUUUUAAGGGUA [A24G A54G A67G]	1.07
GUUAACGGUCAUAGGCCAUGGAAGCUAGGAGCACCAUUUCGCUGCCAGUGAAGAAAUGGACAAAGAAAAUCUGGGCCAGGCAGGCAUCAAGAGAAAUAGUCUUGCGCUCAACCAGAAAGUCUGUAAUCAUUUUAAGGGUA [A24G A59G A91G]	0.9
GUUAACGGUCAUAGGCCAUGGAAGCUAGGAGCACCAUUUCGCUGCCAGUGAAGAAAUGAGCAAAGAAAAUCUGGGCCAGGCGGGCAUCAAAAGAGAUAGUCUUGCGCUCAACCAGGAAGUCUGUAAUCAUUUUAAGGGUA [A24G A60G A82G A95G A116G]	0.12
GUUAACGGUCAUAGGCCAUGGAAGCUAGGAGCACCAUUUCGCUGCCAGUGAAGAAGUGAACAAAGAAAAUCUGGGCCAGGCAGGCAUCGAAAGAAAUAGUCUUGCGCUCAACCAGAAAGUCUGUAAUCAUUUUGAGGGUA [A24G A56G A89G A134G]	1.93
GUUAACGGUCAUAGGCCAUGGAAGCUAGGAGCACCAUUUCGCUGCCAGUGAAGAGAUGAACAAAGAAAAUCUGGGCCAGGCAGGCAUCAAAAGAAAUAGUCUUGCGCUCAACCAGAAAGUCCGUAAUCAUUUUAAGGGUA [A24G A55G U122C]	0.9
GUUAACGGUCAUAGGCCAUGGAAGCUAGGAGCACCAUUUCGCUGCCAGUGAAGAAAUGAACUAAGAAAAUCUGGGCCAGGCAGGCAUCAAAAGAAAUAGUCUUGCGCUCAGCCAGAAAGUCUGUAAUCAUUUUAAGGGUA [A24G A62U A111G]	0.03
GUUAACGGUCAUAGGCCAUGGAAGCUAGGAGCACCAUUUCGCUGCCAGUGAAGAAAUGCACAAAGAAAAUCUGGGCCAGGCAGGCAUCAGAAGAAAUAGUCUUGCGCUCAACCAGAAAGUCUGUAAUCAUUUUAAGGGUA [A24G A59C A90G]	0.45
GUUAACGGUCAUAGGCCAUGGAAGCUAGGAGCACCAUUUCGCUGCCAGUGAAGAAAUGUACAAAGAAAAUCUGGGCCAGGCAGGCAUCAAAAGAAAAAGUCUUGCGCUCUACCAGAAAGUCUGUAAUCAUUUUAAGGGUA [A24G A59U U97A A110U]	0.7
GUUAACGGUCAUAGGCCAUGGAAGCUAGGAGCACCAUUUCGCUGCCAGUGAAGAAAUGAUCAAAGAAAAUCUGGGCCAGGCAGGCAUCAAAAGAAAUAGUCUUGCGCUCAACCAGAAAGUCUGUAAUCAUCUUAAGGGUA [A24G A60U U131C]	1.03
GUUAACGGUCAUAGGCCAUGGAAGCUAGGAGCACCAUUUCGCUGCCAGUGAAGGAAUGAACAAAGAAAAUCUGGGCCAGGCAGGCAUCAAAAGAAAUAGUCUUGCGCCCAACCAGAAAGUCUGUAACCAUUUUAAGGGUA [A24G A54G U108C U127C]	0

Reference: the RNAGym collection of RNA variant scans (doi:10.7554/elife.90254)
